Results from PubChem BioAssay AID1745853 (National Center for Advancing Translational Sciences (NCATS), 2022).
The other results are listed elsewhere or left out. Further columns of the screen follow, without active or inactive calls.

Assays:
Assay in all cases: Primary Screen for Target Class Profiling of Small Molecule Inhibitors of Methyltransferases
[1] = biological target: Glycine N-methyltransferase (Homo sapiens) (UniProt Q14749); settings: purified enzyme, MTase-Glo SAH luminescence; measured here: GNMT inhibition; at 40 µM; stronger effect = lower value
Excerpt: (§1) PI: Matthew D. Hall Ph.D. and Quinlin M. Hanson Ph.D.
(§2) National Center for Advancing Translational Sciences (NCATS)
(§3) National Institute of Health (NIH), Rockville, MD
(§4) Target class profiling (TCP) is a chemical biology approach amenable to investigating understudied biological targets. TCP is achieved by developing a generalizable assay platform and applying it to screen a curated set of compound libraries against representative members of a target class. Small molecule methyltransferases (SMMTase) are a subclass of methyltransferase that act on metabolites to modulate signaling pathways, metabolize xenobiotics, or balance the available methyl pool. We screened four curated libraries totaling 27,574 unique compounds against the SMMTases nicotinamide N-methyltransferase (NNMT), phenylethanolamine N-methyltransferase (PNMT), histamine N-methyltransferase (HNMT), glycine N-methyltransferase (GNMT), catechol O-methyltransferase (COMT), and guanidinoacetate N-methyltransferase (GAMT). The data generated by this TCP can be leveraged for informed tool molecule development. For example, in the associated publication we identified a chemotype of HNMT-selective inhibitors. Additionally, we identified a putative SMMTase-selective inhibitor with potential as a tool molecule for studying broader methyltransferase biology.
(§5) High-through put screening assays were developed at the National Center for Advancing Translational Science (NCATS) for the enzymes NNMT, PNMT, HNMT, GNMT, COMT, and GAMT. Enzymatic activity was measured as a function of SAM cofactor conversion using the MTase Glo kit (Promega) for all enzymes. All assays were performed in 1536-well format with substrates and SAM concentrations at KM values. Enzyme concentration and assay timing were optimized for 10-20% SAM conversion. Initial screening of 27,574 compounds was done as single-point assays using the highest compound concentration (40 uM). […] These compounds were replated in 11-point dose response and assayed against NNMT, PNMT, HNMT, GNMT, COMT, GAMT, and a counter-assay. The IC50 and efficacy (maximal response) values were determined for each dose-response curve. These values are also accounted for in the area under the curve (AUC) values.
(§6) PROTOCOL TABLE (as described by Inglese J, Shamu CE and Guy RK. 2007)
(§7) SEQUENCE No. (e.g., 1, 2, 3, etc.); […] (e.g., Cells, Incubation, Reagent, etc.); VALUE; DESCRIPTION.
(§8) 1; Reagent; 2 uL; SMMTase Enzyme (2x) in reaction buffer, columns 1- 48.
(§9) 2; Reagent; 1 uL; SAM (4x) in reaction buffer, columns 1-48.
(§10) 3; Controls; 23 nL; DMSO in column 4; sinefungin in DMSO (0 uM - 40 uM) in 7-point 1:2 dilution series (n = 2) in column 2.
(§11) 4; Compounds; 23 nL; Columns 5-48.
(§12) 5; Reagent; 1 uL; Substrate (4x) in reaction buffer, columns 2-48.
(§13) 6; Time; 20-30 min; Incubation.
(§14) 7; Reagent; 1 uL; MTase-Glo reagent (5X), columns 1-48.
(§15) 8; Time; 30 min; Incubation.
(§16) 9; Reagent; 5 uL; MTase-Glo Detection reagent, columns 1-48.
(§17) 10; Time; 30 min; Incubation, luminescence evolution.
(§18) 11; Detection; Luminescence; ViewLux uHTS Microplate Imager (PerkinElmer).
(§19) NOTES (numbers refer to Sequence numbers above)
(§20) 1, 2, 5. White Medium Binding Greiner 1536-well plates (Cat #789175-F, Greiner Bio-One, Monroe, NC); Reaction buffer: 50 mM Tris, pH 8.0, 3 mM MgCl2, 1 mM EDTA, 50 mM NaCl, 1 mM DTT, and 0.1 mg/mL BSA. Evaporation was prevented by covering assay plates with metal lids containing holes to allow gas diffusion.
(§21) 1. Six SMMTase were profiled: HNMT, GNMT, PNMT, COMT, NNMT, GAMT
(§22) 5. The corresponding substrate was used for each enzyme: HNMT - 5.3 uM Histamine; GNMT - >500 uM Glycine; PNMT - 16.2 uM Norephinephrine; COMT - 13.7 uM Norephinephrine; NNMT - 3.8 uM Nicotinamide; GAMT - 2.5 uM Guanidinoacetate.6, 8, 10. Room temperature
(§23) 6. Final reaction conditions: 10 nM COMT, 5 uM SAM, 15 uM norepinephrine, 50 mM Tris, pH 8.0, 3 mM MgCl2, 1 mM EDTA, 50 mM NaCl, 1 mM DTT, and 0.1 mg/mL BSA; refer to tables 2 and S1 for specific timing.
8. […]

[2] = biological target: Guanidinoacetate N-methyltransferase (Homo sapiens) (UniProt Q14353); settings: purified enzyme, MTase-Glo SAH luminescence; measured here: GAMT inhibition; at 40 µM; stronger effect = lower value
Excerpt: as §1, §2, §3, §4, §5, §6, §7, §8, §9, §10, §11, §12, §13, §14, §15, §16, §17, §18, §19, §20, §21, §22, §23
8. […]

[3] = biological target: Histamine N-methyltransferase (Homo sapiens) (UniProt P50135); settings: purified enzyme, MTase-Glo SAH luminescence; measured here: HNMT inhibition; at 40 µM; stronger effect = lower value
Excerpt: as §1, §2, §3, §4, §5, §6, §7, §8, §9, §10, §11, §12, §13, §14, §15, §16, §17, §18, §19, §20, §21, §22, §23
8. […]

[4] = biological target: Nicotinamide N-methyltransferase (Homo sapiens) (UniProt P40261); settings: purified enzyme, MTase-Glo SAH luminescence; measured here: NNMT inhibition; at 40 µM; stronger effect = lower value
Excerpt: as §1, §2, §3, §4, §5, §6, §7, §8, §9, §10, §11, §12, §13, §14, §15, §16, §17, §18, §19, §20, §21, §22, §23
8. […]

[5] = biological target: Phenylethanolamine N-methyltransferase (Homo sapiens) (UniProt P11086); settings: purified enzyme, MTase-Glo SAH luminescence; measured here: PNMT inhibition; at 40 µM; stronger effect = lower value
Excerpt: as §1, §2, §3, §4, §5, §6, §7, §8, §9, §10, §11, §12, §13, §14, §15, §16, §17, §18, §19, §20, §21, §22, §23
8. […]
% is scaled to controls: 0 for no effect and ±100 for the full control effect.

Row | SMILES | activity change, negative = inhibition [1] | activity change, negative = inhibition [2] | activity change, negative = inhibition [3] | activity change, negative = inhibition [4] | activity change, negative = inhibition [5]
1 | COc1ccc(-c2nnc3n2CCN(C(=O)c2ccc(Cl)nc2)C3)cc1 | -6.74% | 1.2% | 0.783% | -1.84% | -2.71%
2 | Cc1ccc(CNC(=O)Cn2c(N3CCCCC3)nc(C)c(C)c2=O)cc1 | -1.05% | 2.94% | 2.47% | 3.31% | -6.96%
3 | CCCCC1CCC(c2nc(-c3ccncc3)no2)CC1 (stereo not given) | -2.11% | -12.8% | -5.26% | -28.6% | -18.5%
4 | Cc1ccc(CNC(=O)C2(C)Cn3nc(C(=O)NCCCc4ccccc4)cc3C(=O)N2C)cc1 (stereo not given) | 2.33% | 0% | -2.85% | 2.72% | 3.99%
5 | CN(C)c1ccc(NC(=O)NS(=O)(=O)c2ccc(Cl)cc2)cc1 | -73.7% | -83.8% | -6.3% | -50.1% | -49.1%
6 | Cc1ccc(CN2C(=O)c3nc4ccccc4n3CC2(C)C(=O)NCc2ccccc2)cc1 (stereo not given) | 3.95% | 2.21% | 7.04% | 11.7% | 2.42%
7 | CC(C)CCC[C@@H](C)[C@H]1CC[C@H]2[C@@H]3CC=C4C[C@@H](OC(=O)NCCN(C)C)CC[C@]4(C)[C@H]3CC[C@]12C | -2.6% | 23.6% | 11.2% | 10.3% | 10.9%
8 | CN1C(=O)c2cc(C(=O)N3CCCC3)nn2CC1(C)C(=O)NCc1ccc(F)cc1 (stereo not given) | 5% | 0% | -1.35% | 8.36% | 5.53%
9 | COc1cc(C(=O)OC(COCCC(C)C)CN2CCOCC2)cc(OC)c1OC (stereo not given) | 3.43% | 3.48% | 11.2% | -5.74% | 4.39%
10 | Cc1cccc(-c2nnn3c2nc(NCCC(C)C)c2ccccc23)c1 | -6.64% | 2.04% | -7.92% | -9.73% | -11.3%
11 | COC(=O)c1ncn2c1C(=O)N(Cc1cccc(OC)c1)C(C)(C(=O)NC1CCCCCC1)C2 (stereo not given) | -0.549% | 1.36% | 2.44% | -1.39% | 0.434%
12 | CC(C)OCCCn1c(=O)c2ccccc2n2c(-c3ccc(F)c(F)c3)nnc12 | -2.63% | 5.82% | 5.92% | 3.19% | -2.07%
13 | CC(C)(N)c1ncc(-c2ccc(OC(F)(F)F)cc2)[nH]1 | -3.42% | 1.05% | 6.17% | -14.3% | 3.47%
14 | O=C(Cn1nc2n(CCc3ccccc3)c(=O)c3ccccc3n2c1=O)Nc1ccc2c(c1)OCO2 | 7.27% | 0% | 8.4% | -1.35% | 3.28%
15 | CCCC1c2ccc(C)n2CCN1C(=O)Nc1ccc(C)c(Cl)c1 (stereo not given) | 1.21% | 0% | -2.02% | 6.88% | 3.42%
16 | CC1CCCC(NC(=O)C2(C)Cn3c(nc4ccccc43)C(=O)N2Cc2ccco2)C1C (stereo not given) | 0.896% | 0.081% | 4.94% | 3.33% | -0.542%
17 | CCOc1ccc(C(=O)Cn2nc3n(Cc4ccccc4)c(=O)c4ccccc4n3c2=O)cc1 | 5.85% | 0% | 13.4% | 11.4% | 6.9%
18 | C=Cc1ccc(Cn2nc3n(C)c(=O)c4ccc(C(=O)NC(C)CC)cc4n3c2=O)cc1 (stereo not given) | 5.03% | 0% | 7.95% | 0.881% | 6.31%
19 | O=C(CCc1nnc2n(CCc3ccccc3)c(=O)c3ccccc3n12)NCc1ccc(F)cc1 | -2.4% | -24.1% | 10.6% | 15.6% | -1.57%
20 | O=C(Nc1cccnc1)c1ccc2c(c1)OCCN(c1cccc(OC(F)(F)F)c1)C2 | -10.8% | -9.49% | -4.87% | -21.3% | -7.45%
